The record followed here is article PMC4336329 (PLoS ONE, 2015).

The structures appear in SMILES notation. About 14,000 (4.5%) of roughly 310,000 compounds showed an effect of 50% or more. The effect is printed as a negative number. The list shows a part of the results.
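Note: peak tail current of the secondary pulse compared with the same well before compound.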

human ether-à-go-go-related gene (hERG) potassium channel, sequence (Q12809 whole entry, looked up): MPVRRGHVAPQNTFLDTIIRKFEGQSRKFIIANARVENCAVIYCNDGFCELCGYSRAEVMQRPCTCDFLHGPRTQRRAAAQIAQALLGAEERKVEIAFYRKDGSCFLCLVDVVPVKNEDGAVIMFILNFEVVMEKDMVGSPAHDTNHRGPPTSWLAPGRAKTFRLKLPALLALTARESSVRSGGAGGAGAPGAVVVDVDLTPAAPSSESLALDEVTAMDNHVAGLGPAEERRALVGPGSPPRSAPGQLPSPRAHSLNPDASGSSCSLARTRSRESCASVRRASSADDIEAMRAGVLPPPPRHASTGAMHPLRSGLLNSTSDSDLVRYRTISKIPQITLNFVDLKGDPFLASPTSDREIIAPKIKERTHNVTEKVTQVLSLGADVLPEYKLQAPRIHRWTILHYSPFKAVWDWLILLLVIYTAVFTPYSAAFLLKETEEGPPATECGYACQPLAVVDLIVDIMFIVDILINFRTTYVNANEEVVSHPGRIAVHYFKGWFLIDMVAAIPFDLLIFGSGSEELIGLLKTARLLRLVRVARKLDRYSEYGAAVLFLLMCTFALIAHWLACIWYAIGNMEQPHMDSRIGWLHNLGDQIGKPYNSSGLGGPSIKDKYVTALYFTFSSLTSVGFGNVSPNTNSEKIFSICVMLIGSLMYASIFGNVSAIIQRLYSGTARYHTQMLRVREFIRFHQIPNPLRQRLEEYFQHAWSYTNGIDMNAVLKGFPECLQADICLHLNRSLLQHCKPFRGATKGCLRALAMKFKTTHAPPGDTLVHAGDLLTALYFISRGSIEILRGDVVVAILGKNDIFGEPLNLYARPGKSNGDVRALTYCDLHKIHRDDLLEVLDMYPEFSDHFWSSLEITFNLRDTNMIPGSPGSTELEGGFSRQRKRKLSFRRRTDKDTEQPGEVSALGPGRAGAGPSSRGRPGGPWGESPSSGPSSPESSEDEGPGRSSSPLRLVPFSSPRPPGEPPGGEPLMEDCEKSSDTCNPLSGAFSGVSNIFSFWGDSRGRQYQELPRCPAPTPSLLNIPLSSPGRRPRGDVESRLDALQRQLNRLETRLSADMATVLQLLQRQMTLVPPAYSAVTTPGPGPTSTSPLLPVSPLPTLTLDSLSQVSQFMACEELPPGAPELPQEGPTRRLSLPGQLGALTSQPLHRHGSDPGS

The assay concerns the target human ether-à-go-go-related gene (hERG) potassium channel (human, UniProt Q12809). Nature of the assay: primary screen, population patch clamp on CHO cells stably expressing hERG.
Take `COc1cccc(CSc2nnc(-c3ccc(F)cc3)o2)c1`: the “hERG current change (%, negative = inhibition) at 10uM” value worked out at 1.24%.
For `CCc1cccc(NC(=O)C2CCN(S(=O)(=O)c3ccc4c(c3)CC(C)N4C(C)=O)CC2)c1` (stereo not shown), the “hERG current change (%, negative = inhibition) at 10uM” value is reported as 2.05%.
`C=CCn1c2ccccc2c2nnc(SCN3C(=O)c4ccccc4C3=O)nc21`: the “hERG current change (%, negative = inhibition) at 10uM” value was -7.89%.
On to `Cc1ccc(S(=O)(=O)n2nc(OC(=O)c3cccs3)cc2N)cc1`, for which the “hERG current change (%, negative = inhibition) at 10uM” value came out at 10.9%.
The value for `CCN(CC)S(=O)(=O)c1c(Br)cc(C)cc1Br` was -28.8%; that for `CCOc1cc(N2CCOCC2)c(OCC)cc1NC(=O)COc1ncnc2ccc(Br)cc12` was -6.42%.
Turning to `CN1C(=O)C2CN(CCc3ccccc3)CNC2N(C)C1=O` (stereo not shown), the “hERG current change (%, negative = inhibition) at 10uM” value came out at 7.02%.
Regarding `O=C(Nn1cnnc1)c1ccccc1Cl`, the “hERG current change (%, negative = inhibition) at 10uM” value is 15.4%.
As for `CCOC(=S)SCC(=O)Nc1nc(-c2ccc(Br)cc2)cs1`, the “hERG current change (%, negative = inhibition) at 10uM” value was -45.2%.
The value for `CNS(=O)(=O)c1cccc(C(=O)OCC(=O)c2c(N)n(C)c(=O)n(C)c2=O)c1` was 11.9%; that for `COc1cc(NC(=O)NNC(=O)c2cc3occc3n2C)cc(OC)c1OC` was 26.1%.
On to `COc1ccc(F)cc1S(=O)(=O)Nc1cc2c3c(c1)CC(=O)N3CCC2`, for which the “hERG current change (%, negative = inhibition) at 10uM” value was determined as 8.85%.
With `COc1ccccc1N=NC1=C(O)CC(C)(C)CC1=O`, the “hERG current change (%, negative = inhibition) at 10uM” value came to 32.9%.
Take `COc1cc(C2NC(=O)NC(C)=C2C(=O)Nc2cccc(C)c2C)cc(OC)c1OC` (stereo not shown): the “hERG current change (%, negative = inhibition) at 10uM” value is 19.8%.
Consider `Cc1cc(S(=O)(=O)NC2CCN(Cc3ccccc3)CC2)c(C)cc1Cl`, for which the “hERG current change (%, negative = inhibition) at 10uM” value is 2.78%.
With `COc1ccc(CC(=O)N/N=C/C=C/c2ccc3c(c2)OCO3)cc1OC`, the “hERG current change (%, negative = inhibition) at 10uM” value was -2.81%.
`CCC(CC)NC(=O)CC(c1ccccc1)c1ccccc1`: the “hERG current change (%, negative = inhibition) at 10uM” value came to 20.7%.
Turning to `Cc1cccc(C(=O)Nc2cccc(C(=O)N/N=C/c3ccccn3)c2)c1`, the “hERG current change (%, negative = inhibition) at 10uM” value is listed as -3.01%.
On to `O=C(CSc1n[nH]c(-c2ccncc2)n1)NCCc1ccccc1`, for which the “hERG current change (%, negative = inhibition) at 10uM” value was 13.2%.
The figure for `CCc1ccc(OCC(=O)N/N=C/c2cc([N+](=O)[O-])ccc2N2CCOCC2)cc1` is -14.6%; for `Cc1ccc(S(=O)(=O)Nc2c(NC3CCCCC3)c3ccccc3oc2=O)cc1C` it is 2.53%; for `CCOc1ccc(C(=O)COC(=O)Cn2cnc3c2c(=O)n(C)c(=O)n3C)cc1` it is -13.5%.
On to `CC(C)Oc1ccc(C2CC(=O)N(c3ccccc3)C2=O)cc1` (stereo not shown), for which the “hERG current change (%, negative = inhibition) at 10uM” value came to 6.47%.
The figure for `CC(C)c1ccc(N=C2N=C(N)c3ccccc32)cc1` is -59.2%.
Turning to `COc1ccc(OC)c(C2C(C#N)=C(N)Oc3cc(C)n(Cc4ccccn4)c(=O)c32)c1` (stereo not shown), the “hERG current change (%, negative = inhibition) at 10uM” value is given as -8.03%.
In the case of `O=C(N[C@@H](Cc1ccc(Br)cc1)C(=O)O)OCC1c2ccccc2-c2ccccc21`, the “hERG current change (%, negative = inhibition) at 10uM” value is recorded as -0.0748%.
As to `CCOC(=O)c1sc2nc3c(cc2c1N)C(=O)CC(C)(C)C3`, the “hERG current change (%, negative = inhibition) at 10uM” value is 25.7%.
For the compound `O=C(NCCN1CCN(c2cccc(Cl)c2)CC1)c1ccc(CSc2nc3ccncc3[nH]2)cc1`, the “hERG current change (%, negative = inhibition) at 10uM” value is on record as -6.99%.
Take `COc1cc2c(cc1OC)CN(c1nc(CN3CCCCC3)nc3sc4c(c13)CCCC4)CC2`: the “hERG current change (%, negative = inhibition) at 10uM” value is on record as -81.2%.
The figure for `Cc1nc(Cl)sc1C(=O)Nc1cc(F)cc(F)c1` is 10.4%; for `CCOc1ccc(C2=Nn3c(nnc3-c3cccnc3)SC2)cc1` it is -20.2%; for `FC(F)(F)c1ccc(Cl)c(-n2c(Cc3cccs3)n[nH]c2=S)c1` it is 8.56%.
Take `COC(=O)CC1SC(=O)NC1=O` (stereo not shown): the “hERG current change (%, negative = inhibition) at 10uM” value stood at 19%.
Consider `COc1ccc(S(=O)(=O)N(C)C)cc1NC(=O)COC(=O)CC1CCCC1`, for which the “hERG current change (%, negative = inhibition) at 10uM” value was -72.8%.
`COc1c(S(=O)(=O)N2CCCC2)ccc(Cl)c1Cl`: the “hERG current change (%, negative = inhibition) at 10uM” value is -0.996%.
In the case of `Oc1ccc(Cl)cc1C1=NNC(c2cc(Br)cc3c2OCOC3)C1` (stereo not shown), the “hERG current change (%, negative = inhibition) at 10uM” value worked out at 21.5%.
In the case of `Cc1cccc2cc(/C=N/NC(=O)c3ccncc3)c(Cl)nc12`, the “hERG current change (%, negative = inhibition) at 10uM” value is on record as 16.2%.
With `CCOc1ccc(C2C(C(=O)/C=C/c3ccco3)=C(O)C(=O)N2CCN2CCOCC2)cc1OC` (stereo not shown), the “hERG current change (%, negative = inhibition) at 10uM” value was 11.9%.
Regarding `COc1cc(-c2n[nH]c(=S)n2-c2cc(C(F)(F)F)ccc2Cl)cc(OC)c1OC`, the “hERG current change (%, negative = inhibition) at 10uM” value was -7.46%.
For the compound `C1CCC2(CC1)OCC1(CO2)COC2(CCCCC2)OC1`, the “hERG current change (%, negative = inhibition) at 10uM” value came out at 3.07%.
On to `COc1ccc2[nH]cc(CCNC(=S)NC3CCCC3)c2c1`, for which the “hERG current change (%, negative = inhibition) at 10uM” value is recorded as -0.976%.
Turning to `CC(=NCc1ccco1)c1c(O)n(C)c(=O)n(C)c1=O`, the “hERG current change (%, negative = inhibition) at 10uM” value is reported as -18.9%.
For the compound `O=C(Cn1nnc(-c2ccccc2)n1)NNC(=O)c1ccco1`, the “hERG current change (%, negative = inhibition) at 10uM” value worked out at 14.3%.
On to `CCOc1ccccc1N(C)C(=O)Cn1ncc2c([nH]c3ccc(C)cc32)c1=O`, for which the “hERG current change (%, negative = inhibition) at 10uM” value is reported as 8%.
The figure for `CN(c1ccccc1)S(=O)(=O)c1cccc(C(=O)OCC(=O)NCc2ccco2)c1` is -25.1%.
With `Cc1cccc(CCNC(=O)c2cccc(N3CCCC3=O)c2)c1`, the “hERG current change (%, negative = inhibition) at 10uM” value was -7.18%.
As for `Cn1nc(NC(=O)CC(C)(C)CC(=O)O)c2ccccc21`, the “hERG current change (%, negative = inhibition) at 10uM” value worked out at 24.5%.
`CCC1=C(OC(=O)N(CC)CC)N2C(=O)OC(=NCCc3c[nH]c4ccccc34)[C@]2(C)[C@H]2C1=CC[C@H]1C(=O)N(CC)C(=O)[C@H]12`: the “hERG current change (%, negative = inhibition) at 10uM” value is given as -9.68%.
The figure for `OC(c1cccc(OCc2ccccc2)c1)c1nnc(-c2ccccc2)o1` (stereo not shown) is 3.25%; for `Cc1ccc(OCC(=O)Nc2nnc(S(=O)(=O)N3CCCCCC3)s2)cc1` it is 11.3%; for `Cc1ccc(NC(=O)C2CCN(S(=O)(=O)c3ccc(F)cc3)CC2)cc1` it is -6.74%.
The value for `CC[C@H](C)[C@@H]1NC(=O)c2cc([N+](=O)[O-])cc(I)c2NCC[C@@H](C(N)=O)NC(=O)[C@H](CCCN=C(N)N)NC1=O` was 4%; that for `CN(CCOc1ccccc1)CC(O)COc1ccccc1` (stereo not shown) was 10.8%.
The value for `Oc1ccc(/C=N/Nc2nn3cnnc3c3ccccc23)cc1` was 10.7%; that for `Fc1ccccc1COc1ccccc1/C=N/Nc1nc(N2CCCC2)nc(N2CCCC2)n1` was 14.3%; that for `COc1ccc2[nH]c3c(c2c1)CCN1C(=O)N([C@@H](C)C(=O)NC2CCN(Cc4ccccc4)CC2)C(=O)[C@]31C` was -48.8%.
For the compound `O=C(CCSc1ccccc1Cl)NNC(=O)c1ccncc1`, the “hERG current change (%, negative = inhibition) at 10uM” value is given as -3.37%.
Take `CN(C(=O)c1cccc(S(=O)(=O)N2CCCCC2)c1)C1CCS(=O)(=O)C1` (stereo not shown): the “hERG current change (%, negative = inhibition) at 10uM” value amounted to 2.39%.
On to `COc1ccccc1N1CCN(/N=C/c2cc(OC)c(OC)c(OC)c2)CC1`, for which the “hERG current change (%, negative = inhibition) at 10uM” value came out at 14%.
For `CCc1nnc(NS(=O)(=O)c2ccc(NCc3cc(Cl)cc(Cl)c3O)cc2)s1`, the “hERG current change (%, negative = inhibition) at 10uM” value is 1.61%.
With `COC(CNC(=O)c1ccc2c(c1)nc(C)n2-c1cccc(F)c1)OC`, the “hERG current change (%, negative = inhibition) at 10uM” value is on record as -8.99%.
The value for `CCOc1ccc(-n2c(-c3ccoc3)nc3ccccc3c2=O)cc1` was -8.33%; that for `COCCCNc1ncnc2c1cnn2-c1ccc(C)cc1C` was -4.32%; that for `CS(=O)(=O)c1nc(S(=O)(=O)c2ccc(Cl)cc2)c(NCCCN2CCCC2=O)s1` was -27.5%.
Regarding `Cc1cn2c(N)c(/C=C3\C=Nc4ccccc43)c(=O)nc2s1`, the “hERG current change (%, negative = inhibition) at 10uM” value worked out at 2.43%.
Turning to `CN1N=C(C(=O)N2CCCC(N3CCN(c4ccc(F)cc4)CC3)C2)CCC1=O` (stereo not shown), the “hERG current change (%, negative = inhibition) at 10uM” value stood at 2.78%.
Regarding `N#Cc1ccc(N2CCCNCC2)nc1`, the “hERG current change (%, negative = inhibition) at 10uM” value is on record as -88.5%.
The value for `COc1ccccc1C(CC(=O)N1CCCC1)c1ccc2c(c1)OCO2` (stereo not shown) was -3.05%; that for `Cc1ccc(CC2CC(=O)N(CC(=O)O)C2=O)cc1` (stereo not shown) was 12%; that for `CN(C(=O)COC(=O)C1(C)CC1(Cl)Cl)c1c(N)n(Cc2ccccc2)c(=O)[nH]c1=O` (stereo not shown) was 1.11%.
On to `COc1ccc([N+](=O)[O-])cc1/C=N/Nc1nc(N2CCCCC2)nc(N2CCCCC2)n1`, for which the “hERG current change (%, negative = inhibition) at 10uM” value is reported as -8.89%.
As for `CC(C)(C)C(=O)NC1(C(F)(F)F)C(=O)Nc2c1c(=O)[nH]c(=O)n2Cc1ccco1` (stereo not shown), the “hERG current change (%, negative = inhibition) at 10uM” value amounted to 13.5%.
`COc1ccccc1-n1cnc(N)c1C(C)=O`: the “hERG current change (%, negative = inhibition) at 10uM” value is reported as -9.62%.
With `COc1ccc2[nH]c3c(=O)n(Cc4ccc(C(=O)NCC5CCCO5)cc4)c(=S)[nH]c3c2c1` (stereo not shown), the “hERG current change (%, negative = inhibition) at 10uM” value was found to be 10.7%.
Consider `O=C(CCN1C(=O)/C(=C/c2ccc(F)cc2)SC1=S)NCCc1ccc(O)cc1`, for which the “hERG current change (%, negative = inhibition) at 10uM” value amounted to 18.3%.
As to `CCOC(=O)CNC(=S)N(Cc1ccccc1)Cc1cccnc1`, the “hERG current change (%, negative = inhibition) at 10uM” value is listed as -17.9%.
The value for `CC1=NN(c2nc3ccccc3[nH]2)C(=O)C1Cc1ccccc1` (stereo not shown) was -12.5%; that for `Cc1ccc(C)c(C2(O)CC(C)N(C)CC2C)c1` (stereo not shown) was 12.8%; that for `O=C(N/N=C/c1cc([N+](=O)[O-])ccc1O)c1ccc(COc2ccc3c(c2)CCC3)o1` was 24.4%.
Take `Cc1nc2cc(C(F)(F)F)ccc2n1C1CCN(C(=O)N2CCOCC2)CC1`: the “hERG current change (%, negative = inhibition) at 10uM” value is given as -55.7%.
For `ClC1(Cl)CC1CSc1nnc(-c2ccncc2)o1` (stereo not shown), the “hERG current change (%, negative = inhibition) at 10uM” value is -16.3%.
Take `CC(C)c1ccccc1NC(=O)COC(=O)/C=C/c1cccc([N+](=O)[O-])c1`: the “hERG current change (%, negative = inhibition) at 10uM” value was determined as 18.4%.
As to `O=C(NCCCO)Nc1ccc2nc(-c3ccco3)c(-c3ccco3)nc2c1`, the “hERG current change (%, negative = inhibition) at 10uM” value is listed as 12.8%.
With `CCn1c(SCc2ccc(Cl)cc2Cl)nc2nc3c(cc2c1=O)CCCC3`, the “hERG current change (%, negative = inhibition) at 10uM” value is -0.584%.
As to `Fc1ccc(-c2onc3ccc(C4OCCO4)cc23)cc1`, the “hERG current change (%, negative = inhibition) at 10uM” value is recorded as 4.75%.
